“And” between values parts separate entries of the source, which are not always exact repeats. Equal values may be shown once. In all, about 150,000 compounds went through this assay and about 540 (0.36%) showed an effect of 50% or more. Some of the results follow.

The test deals with Plasmodium falciparum. Kind of test: Primary screen in NF54 nanoGlo assay, in single point, at 2uM, 72h; a lower Z score goes with more inhibition. The test is classed as functional, Erythrocyte. The note with it: timepoint 72 hour.

Consider `Brc1cn[nH]c1-c1ccccn1`, for which, under “2 µM”, the “% Inhibition” value is -8% and -10%; the Z score was 1 and 1.04.

In the case of `CC(C)N(C)C[C@H](C)NCCc1ccccc1Cl`, the “% Inhibition” value is given as -1% and the Z score turned out to be 0.13.

For `NC[C@@H](C(=O)N1CCCCCCC1)c1ccccc1`, the “% Inhibition” value stood at 1% and the Z score is -0.08.

On to `O=C(c1ccncc1)N1CCc2ccccc2C1`, for which the “% Inhibition” value is -4% and the Z score amounted to 0.47.

For the compound `CCC(C)C1NC2(CCN(C(=O)NC(C)(C)C)CC2)N(C2CCN(Cc3ccccc3)CC2)C1=O` (stereo not drawn), the “% Inhibition” value was -4% and the Z score was 0.76.

Take `O=C(Cn1cnc2ccc(Cl)cc2c1=O)N1CCCc2ccccc21`: the “% Inhibition” value is on record as -13% and the Z score is 2.14.

`CCc1csc(CNC(=O)c2ccc(N(C)Cc3cccs3)nc2)n1`: the “% Inhibition” value is listed as 14% and the Z score is listed as -1.86.

Take `OC1(C(F)(F)c2nc(-c3cnccn3)no2)CCC1`: the “% Inhibition” value is -8% and the Z score came out at 1.24.

`O=C1NCCCn2cc(nn2)CC2(CCN(C(=O)c3cc(F)ccc3Cl)CC2)C(=O)N[C@H]1Cc1ccccc1`: the “% Inhibition” value is recorded as -8% and the Z score was 1.53.

As to `CN1CCCN(S(=O)(=O)c2ccc(C(=O)NC3CCC3)cc2)CC1`, the “% Inhibition” value is 4% and the Z score was -0.7.

`CCc1cc([C@@H]2CCCN2C(=O)Cc2cccc(Cl)c2)on1`: the “% Inhibition” value is listed as 2% and the Z score is listed as -0.26.

Take `CCc1nc(CN2C[C@]3(C)C[C@H]2CC(C)(C)C3)n[nH]1`: the “% Inhibition” value is -9% and the Z score amounted to 1.75.

On to `OCC[C@H]1CN(C2CCN(c3cccc(Cl)c3)CC2)CCN1CC1CCCCC1`, for which the “% Inhibition” value was -24% and the Z score is given as 2.13.

For `C[C@@H](CS(C)(=O)=O)NCC(C)(C)c1ccccc1Br`, the “% Inhibition” value was determined as 2% and the Z score is -0.4.

With `CCn1cc(CCN2CCN(C(=O)c3ccccc3)CC2)c2cccnc21`, the “% Inhibition” value is -11% and the Z score came out at 1.28.

As for `Cn1ccnc(N[C@@H](COc2ccccc2F)c2ccccc2)c1=O`, the “% Inhibition” value was 31% and the Z score is -0.25.

Consider `FC(F)(F)C1CN(c2nc(-c3ccccn3)nc3c2CCC3)C1`, for which the “% Inhibition” value was 75% and the Z score is on record as -13.36.

Consider `CC(=O)Nc1ccc2c(c1)CN(C(=O)CC(C)C)[C@H](C(=O)N(C)C)C2`, for which the “% Inhibition” value is 2% and the Z score was -0.38.

Regarding `COc1ccc(C2C(C(=O)Nc3ccccc3)C(=O)CC(C)(O)C2C(=O)Nc2ccccc2)cc1` (stereo not drawn), the “% Inhibition” value is on record as -7% and the Z score stood at 0.94.

As to `Cc1cccc(NC(=O)CN2CCN(C(=O)c3nn(-c4ccccc4Cl)c(C)cc3=O)CC2)c1C`, the “% Inhibition” value is -11% and the Z score is 1.61.

Take `CCOC(C)C(=O)N1CCCC(c2nc3ccccc3n2C(C)C)C1` (stereo not drawn): the “% Inhibition” value was -8% and the Z score was determined as 0.99.

`Nc1c(F)cccc1CN1CCN(C(=O)Cn2cnnn2)CC1`: the “% Inhibition” value is on record as -10% and the Z score was 1.49.

For `O=C(CCc1c[nH]c2ccccc12)N1CCCC1`, the “% Inhibition” value is reported as -6% and the Z score was 0.77.

As for `CN(Cc1ccon1)C(=O)CN1CCCCCCC1`, the “% Inhibition” value is -8% and the Z score came out at 1.65.

On to `CCCC1(O)CCN(C(=O)[C@@H]2COC(=O)N2)CC1`, for which the “% Inhibition” value was -33% and the Z score is 3.9.

As to `O=C(NCC1CCCCC1)c1cc2c(F)cccc2s1`, the “% Inhibition” value is 0% and the Z score is 0.04.

Consider `Cc1ccc(Oc2ncccc2CNC(=O)c2cc[n+]([O-])cc2)c(F)c1F`, for which the “% Inhibition” value came to 3% and the Z score is given as -0.42.

As to `CC(C)[C@H](Oc1ccc(F)cc1F)C(=O)NC1CC=CC1`, the “% Inhibition” value is reported as -10% and the Z score amounted to 2.1.

As to `Cc1ccc(C)c(CN(C)S(=O)(=O)NCC(F)(F)F)c1`, the “% Inhibition” value is 4% and the Z score was -0.85.

In the case of `O=C(NC1CC1c1cccc(Cl)c1)c1ccc[nH]1` (stereo not drawn), the “% Inhibition” value came to 9% and the Z score was -1.57.

On to `Cc1ccc2ccc3cc(C(=O)Nc4cccc(C(F)(F)F)c4)[nH]c3c2n1`, for which the “% Inhibition” value worked out at 2% and the Z score is -0.32.

Consider `CCC(=O)N1CCN(C(=O)CCCCc2ccccc2)[C@H]2CS(=O)(=O)C[C@H]21`, for which the “% Inhibition” value is given as -12% and the Z score stood at 2.41.

For `Cc1cc(C)nc(O[C@H]2CCCN(C(=O)CCc3ccccc3)C2)n1`, the “% Inhibition” value turned out to be 5% and the Z score is -0.69.

In the case of `COc1ccc(C(=O)N2CCC[C@H](C(=O)N3CCCN(C)CC3)C2)c2ccccc12`, the “% Inhibition” value is listed as -3% and the Z score came out at 0.53.

Regarding `CC[C@@H](C(=O)NCCNc1cc(C)ccn1)n1cccn1`, the “% Inhibition” value is given as -11% and the Z score came to 1.01.

Take `CC(C)(C)n1nc2nc(NCCN3CCCCC3)nc(-c3ccc(F)c(Cl)c3)c2c1N`: the “% Inhibition” value was 75% and the Z score is given as -7.01.

Regarding `CCC(=O)N1CCc2cc(N3C[C@@H](C(=O)Nc4ccc5c(c4)OCCO5)CC3=O)ccc21`, the “% Inhibition” value turned out to be 1% and the Z score is on record as -0.14.

For the compound `O=C(NC1CC1c1ccccc1F)c1cc[nH]n1` (stereo not drawn), the “% Inhibition” value was determined as 3% and the Z score is recorded as -0.38.

For the compound `Cc1cc(C)cc(CN2CCN(Cc3ncc[nH]3)[C@@H]3CS(=O)(=O)C[C@@H]32)c1`, the “% Inhibition” value is -5% and the Z score was found to be 1.03.

Turning to `O=C(c1cccnc1)n1nc(NCc2ccccc2Cl)nc1NCc1ccccc1Cl`, the “% Inhibition” value was -3% and the Z score was found to be 0.52.

For the compound `CCn1cc(-c2cc(C(=O)N3CCC[C@@H]3Cc3cccnc3)c3ccccc3n2)cn1`, the “% Inhibition” value is on record as -5% and the Z score is listed as 0.65.

As for `CCn1nc(C)c(-c2cc(C(=O)N3CCC(C)(c4noc(-c5ccccn5)n4)CC3)no2)c1C`, the “% Inhibition” value was -12% and the Z score is listed as 1.6.

As for `O=c1cccnn1CCNS(=O)(=O)c1ccc2ccccc2c1`, the “% Inhibition” value stood at 3% and the Z score was -0.57.

For `Cc1cc(Cl)ccc1-n1cnc(=O)n1CC(=O)N(C)C1CC1`, the “% Inhibition” value is given as 8% and the Z score is listed as -0.91.

Take `CCC[C@H]1CN(CC(=O)NC2CCCCCC2)C[C@@H]1NC(C)=O`: the “% Inhibition” value is -2% and the Z score is 0.37.

`CCC(=O)N1CCC[C@H](C(=O)N2CCCCCCC2)C1`: the “% Inhibition” value was determined as 25% and the Z score is -2.81.

Consider `COc1ccsc1C(=O)NCC1(C)CCCCC1O` (stereo not drawn), for which the “% Inhibition” value is -10% and the Z score came to 1.61.

On to `CC(=O)CCC(=O)N1CCC([C@]2(Cc3ccc(F)cc3)NC(=O)N(CC3CC3)C2=O)CC1`, for which the “% Inhibition” value is listed as -17% and the Z score was found to be 2.63.

With `c1ccc(CN2C[C@@H]3CC[C@H]2CN(Cc2ccc4c(c2)OCCO4)C3)nc1`, the “% Inhibition” value is -5% and the Z score is 0.66.

For `N#CCCN(CCC#N)C(=O)C1CCCCC1`, the “% Inhibition” value is recorded as -9% and the Z score is 1.74.

`CCN(CC)CCCNC(=O)[C@H]1CCCN(c2nc3ccccc3n(Cc3ccccc3)c2=O)C1`: the “% Inhibition” value worked out at 37% and the Z score was -5.39.

`CCc1ncc(C(=O)N2CCC[C@H]2COC)cn1`: the “% Inhibition” value is -10% and the Z score was found to be 1.89.

As to `COc1ccc(C)c2sc(N(Cc3cccnc3)C(=O)Cc3cccc4ccccc34)nc12`, the “% Inhibition” value was 3% and the Z score was -0.43.

For the compound `CCC(C)(C)NC(=O)[C@H](C)Oc1cc(OC)ccc1C(C)=O`, the “% Inhibition” value is -3% and the Z score turned out to be 0.46.

Take `COc1ccc(C)cc1N([C@@H](C)C(N)=O)S(C)(=O)=O`: the “% Inhibition” value is recorded as -12% and the Z score turned out to be 1.76.

`Cc1cc(CN2C(=O)N[C@]3(CCc4ccccc4C3)C2=O)on1`: the “% Inhibition” value is listed as -4% and the Z score worked out at 0.74.

Consider `CCN1C[C@@H](C(=O)N2CCC(c3nc4ccccc4n3C)CC2)CCC1=O`, for which the “% Inhibition” value is reported as 0% and the Z score worked out at 0.03.

Consider `O=C(Cc1cccs1)NCc1ccccn1`, for which the “% Inhibition” value is recorded as 5% and the Z score was -0.84.

On to `CCOC(=O)c1ccc2nc(-c3cccc(OC)c3)cc(OCC(=O)Nc3ccccc3F)c2c1`, for which the “% Inhibition” value is -2% and the Z score worked out at 0.4.

In the case of `Cc1ccc(CNc2ccc(C(=O)N(C)[C@H]3CCCN(C)C3)cc2)o1`, the “% Inhibition” value came to 7% and the Z score is -0.76.

In the case of `CN1CCC(N(C[C@H]2CCOC2)C(=O)c2cc(F)ccc2Cl)CC1`, the “% Inhibition” value was -10% and the Z score was 1.28.

As to `COc1nc2c(cc1CNC(=O)c1ccc(CO)o1)C(=O)N(C1CCCC1)C2`, the “% Inhibition” value is listed as -16% and the Z score worked out at 2.05.

Consider `CC1CCC(O)(CN2CCC[C@H](C3OCCO3)C2)CC1` (stereo partly drawn), for which the “% Inhibition” value was -4% and the Z score came out at 0.37.

For `O=C(CC1COc2ccccc2O1)NC1CC12CCOCC2` (stereo not drawn), the “% Inhibition” value is given as 2% and the Z score is -0.33.

For `O=C(N[C@H]1CCCC[C@H]1C(F)(F)F)C1=NN(CCO)C(=O)CC1`, the “% Inhibition” value is reported as -3% and the Z score is on record as 0.6.

On to `COc1ccc(C2=C[C@@H](c3cccc(OC)c3)n3ncc(C(=O)Nc4ccccc4)c3N2)cc1`, for which the “% Inhibition” value is listed as 6% and the Z score was -0.59.

With `O=C([C@@H]1CCC(=O)N1C1CCCC1)N1CCN(c2ccc(F)cc2)CC1`, the “% Inhibition” value is recorded as -11% and the Z score is given as 1.85.

For the compound `COc1ccc(Cl)cc1N(C)C(=O)c1c(C)oc2ncn(CC(C)C)c(=O)c12`, the “% Inhibition” value is recorded as -9% and the Z score is 1.57.

As for `Cc1ccc(CCC(=O)N2CCO[C@]3(CNCCOC3)C2)cc1C`, the “% Inhibition” value is -1% and the Z score was 0.08.

As for `CN(Cc1ccccc1N1CCOCC1)c1ccc(C(N)=O)cn1`, the “% Inhibition” value is recorded as -15% and the Z score was found to be 1.51.

For the compound `CCc1cc(NC(=O)N2CCCC2)n(C)n1`, the “% Inhibition” value is recorded as -7% and the Z score came out at 1.08.

Consider `Cc1csc(C2CCCN(CC(O)COc3ccccc3)C2)n1` (stereo not drawn), for which the “% Inhibition” value was -1% and the Z score turned out to be 0.16.

Regarding `Cc1ccc2snc(C(=O)N3CC(F)CC3CO)c2c1` (stereo not drawn), the “% Inhibition” value is listed as -8% and the Z score came out at 1.5.

Turning to `CCNC(=O)C(C)NS(=O)(=O)N1CCC[C@H]1C(=O)OC(C)(C)C` (stereo partly drawn), the “% Inhibition” value was 1% and the Z score is -0.15.

With `CN1CCC(N(Cc2cccnc2)Cc2ccco2)CC1`, the “% Inhibition” value was 10% and the Z score is listed as -1.51.

For `COCC1CCN(C(=O)CCCN2CCCCC2=O)CC1`, the “% Inhibition” value was 9% and the Z score is on record as -1.13.

In the case of `Cc1cc(=O)c2sccc2n1Cc1nnc(C(C)C)s1`, the “% Inhibition” value is reported as 3% and the Z score is reported as -0.57.

Consider `O=C(NCc1nnc2n1CCC2)c1cc(F)ccc1Br`, for which the “% Inhibition” value was -11% and the Z score was found to be 1.2.

As for `FC(F)(F)c1ccc(-c2nc(CN3CCn4c(Br)cnc4C3)cs2)cc1`, the “% Inhibition” value is recorded as -3% and the Z score amounted to 0.35.

In the case of `CC1=NS(=O)(=O)c2cccnc2N1C`, the “% Inhibition” value is given as -10% and the Z score was found to be 1.09.

With `COc1ccc(NC(=O)C2CCN(c3c(C#N)cnc4ccc(F)cc34)CC2)c(C)c1`, the “% Inhibition” value came to 0% and the Z score is -0.03.

Regarding `CC(C)(Cc1ccc(O)cc1)C(=O)N[C@H]1CCn2cncc21`, the “% Inhibition” value is recorded as -1% and the Z score was found to be 0.14.

Regarding `Cc1cc(Cl)ccc1OCC(=O)Nc1sc2c(c1C#N)CCCCC2`, the “% Inhibition” value is -11% and the Z score was found to be 1.34.

Consider `Cc1n[nH]c(C)c1CC(=O)N1CCC(c2c[nH]c3ccccc23)CC1`, for which the “% Inhibition” value is listed as -3% and the Z score turned out to be 0.42.
